The values below come from PMC4336329 (PLoS ONE, 2015).

Each structure is given as a SMILES string. The campaign covered roughly 310,000 compounds. About 2,200 (0.71%) showed an effect of 50% or more. The effect is printed as a negative number. Some of the results follow.

The target of the assay is human ether-à-go-go-related gene (hERG) potassium channel (human, UniProt Q12809). The assay is described as follows: primary screen, population patch clamp on CHO cells stably expressing hERG.
Sequence of human ether-à-go-go-related gene (hERG) potassium channel (Q12809 whole entry, looked up): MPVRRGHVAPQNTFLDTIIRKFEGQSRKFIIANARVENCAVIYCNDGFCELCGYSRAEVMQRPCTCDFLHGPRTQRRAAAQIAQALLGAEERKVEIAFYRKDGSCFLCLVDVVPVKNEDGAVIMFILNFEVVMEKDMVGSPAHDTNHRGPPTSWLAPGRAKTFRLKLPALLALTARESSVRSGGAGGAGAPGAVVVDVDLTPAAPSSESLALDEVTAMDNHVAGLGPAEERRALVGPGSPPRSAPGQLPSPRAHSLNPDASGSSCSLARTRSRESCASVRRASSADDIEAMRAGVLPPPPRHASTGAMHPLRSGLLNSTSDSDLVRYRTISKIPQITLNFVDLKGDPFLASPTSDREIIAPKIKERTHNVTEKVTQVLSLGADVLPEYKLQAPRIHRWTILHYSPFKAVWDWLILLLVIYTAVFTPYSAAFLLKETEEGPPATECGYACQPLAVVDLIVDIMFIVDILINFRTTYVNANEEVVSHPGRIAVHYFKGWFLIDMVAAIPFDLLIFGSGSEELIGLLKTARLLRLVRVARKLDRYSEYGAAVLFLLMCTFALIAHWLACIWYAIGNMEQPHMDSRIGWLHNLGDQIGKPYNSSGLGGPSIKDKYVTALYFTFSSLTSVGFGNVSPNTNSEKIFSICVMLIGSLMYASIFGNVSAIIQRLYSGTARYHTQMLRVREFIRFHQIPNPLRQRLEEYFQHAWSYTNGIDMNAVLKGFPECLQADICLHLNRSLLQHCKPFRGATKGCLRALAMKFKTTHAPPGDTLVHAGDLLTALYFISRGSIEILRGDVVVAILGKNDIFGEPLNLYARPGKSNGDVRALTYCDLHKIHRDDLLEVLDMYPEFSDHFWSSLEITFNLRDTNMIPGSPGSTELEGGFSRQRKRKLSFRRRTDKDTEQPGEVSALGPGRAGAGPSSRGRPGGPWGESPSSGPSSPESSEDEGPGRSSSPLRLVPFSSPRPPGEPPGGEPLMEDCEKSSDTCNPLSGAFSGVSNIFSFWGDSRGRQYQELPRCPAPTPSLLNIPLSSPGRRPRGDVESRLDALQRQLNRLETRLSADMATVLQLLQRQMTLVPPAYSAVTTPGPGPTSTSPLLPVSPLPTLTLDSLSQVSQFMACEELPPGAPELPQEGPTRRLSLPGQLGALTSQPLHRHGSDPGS
Regarding `O=C(Nc1ccc2c(c1)oc1ccc(S(=O)(=O)N3CCCC3)cc12)C1CC1`, the “hERG current change (%, negative = inhibition) at 1uM” value stood at 3.12%.
On to `CCC(C)Oc1nc(C)cc(C)c1S(=O)(=O)c1ccccc1C` (stereo not shown), for which the “hERG current change (%, negative = inhibition) at 1uM” value is recorded as -0.993%.
Then `COC(=O)[C@@]1(Cc2ccc(OC)cc2)[C@H]2c3cc(C(=O)N(C)C)[nH]c3C[C@H]2CN1C(=O)c1ccccc1`, with 8.07%; and `CSc1ccccc1C(=O)NC1CCCCC1`, with 1.3%.
Then `CN(CC(=O)Nc1ccc(Cl)c(C(F)(F)F)c1)C(=O)CCC(=O)c1ccccc1`, with 4.52%; and `CC1=C(C(=O)Nc2cccc(C)c2C)C(c2cccs2)NC(=S)N1` (stereo not shown), with 7.41%.
In the case of `COc1ccc(OC)c(NC(=O)C2CCCN(S(C)(=O)=O)C2)c1` (stereo not shown), the “hERG current change (%, negative = inhibition) at 1uM” value turned out to be 10.9%.
For the compound `O=C(/C=C/c1ccc([N+](=O)[O-])cc1)Nc1cccc(C(=O)Nc2ccccc2C(=O)O)c1`, the “hERG current change (%, negative = inhibition) at 1uM” value was 19.4%.
Then `CCOC(=O)c1c(C)nc(-c2ccccc2)nc1N`, with 14.9%.
The value for `C=CCOc1ccc(C(=O)O)cc1Cl` was -1.94%; that for `CN1CCN(c2ccc(C(=O)NC3CCCCC3)cc2[N+](=O)[O-])CC1` was -1.35%.
For the compound `O=C(c1ccccc1-c1ncc[nH]1)N1CCc2c([nH]c3ccccc23)C1c1ccccn1` (stereo not shown), the “hERG current change (%, negative = inhibition) at 1uM” value amounted to 3.09%.
The value for `Cc1ccc(-n2c(O)c(C=Nc3ccc(Br)cn3)c(=O)[nH]c2=O)cc1` was 13.3%; that for `CCOC(=O)C1(c2nc(N)cs2)COC(=O)C1` (stereo not shown) was 17%; that for `CC(C)C(=O)Nc1ccc(S(=O)(=O)Nc2ccccn2)cc1` was 8.46%.
Then `COc1ccccc1NC(=O)Cc1nnc(SCC(=O)NC2CCCCC2)n1C`, with 13.8%; and `CCOC(=O)c1ccc(NC(=O)CSc2nc(C)cc(=O)[nH]2)cc1`, with 15.1%; and `CCOC(=O)C1=C(C)N(C)C(=O)NC1c1ccc(C)s1` (stereo not shown), with 10.7%.
Then `Cc1cc(NS(=O)(=O)c2ccccc2)c(C)c(Cl)c1O`, with 5.98%; and `COC(=O)c1ccccc1NC(=O)c1ccccc1SC`, with 0.355%.
Consider `CC1CC(=O)N(CC(=O)Nc2cccc(F)c2)c2ccccc2S1(=O)=O` (stereo not shown), for which the “hERG current change (%, negative = inhibition) at 1uM” value was 9.68%.
Then `COc1ccc2nc(SCC(=O)Nc3nccs3)[nH]c2c1`, with 7.33%; and `O=C(COc1ccccc1-c1ccccc1)NCc1ccco1`, with 6.99%.
`CCn1nnnc1SCC(=O)Nc1cccc(NC(C)=O)c1`: the “hERG current change (%, negative = inhibition) at 1uM” value stood at 3.23%.
The value for `COc1ccc(C2NC(=S)NC3=C2CCc2ccccc23)cc1OC` (stereo not shown) was 8.09%.
Then `O=C(Cn1c(=O)oc2cc(S(=O)(=O)N3CCCC3)ccc21)NCc1ccc(F)cc1`, with 5.55%; and `CCOC(=O)c1[nH]c2c(c1-c1ccccc1)C(=O)CC(c1ccc(Cl)cc1)C2` (stereo not shown), with 8.49%.
Then `Cl.Cn1nnc2c(N3CCCCC3)nccc21`, with -0.481%; and `CCOC(=O)c1cnc2c(C)c(Cl)ccc2c1N1CCOCC1.Cl`, with 10.1%; and `CCN1/C(=C/c2cccc[n+]2C)Sc2ccc(OC)cc21.[I-]`, with -18.4%.
For the compound `Cc1ccc2nc(CSc3nnc(-c4ccncc4)n3C)cc(=O)n2c1`, the “hERG current change (%, negative = inhibition) at 1uM” value is on record as 8.52%.
The value for `O=C(Cc1c(F)cccc1Cl)NCCCn1ccnc1` was -9.03%; that for `CCC1C(=O)Nc2ccccc2N1C(=O)COc1ccccc1` (stereo not shown) was 4.42%; that for `COCCNC(=O)c1cc2c(-c3ccccc3F)nn(C)c2s1` was 18.6%.
The value for `CCOC(=O)N1CCC(NC(=O)c2cc(C)c3c(C)nn(-c4ccccc4)c3n2)CC1` was -0.198%; that for `CCc1nnc(NC(=O)CCN2C(=O)c3ccccc3S2(=O)=O)s1` was 14.8%; that for `CC1(C)CC2CC(C)(CN2S(=O)(=O)c2cccc(C(=O)OCC(N)=O)c2)C1` (stereo not shown) was 13.8%.
In the case of `Cl.O=C(NCC(c1cccs1)N1CCOCC1)c1ccccc1NS(=O)(=O)c1ccc(Cl)c([N+](=O)[O-])c1` (stereo not shown), the “hERG current change (%, negative = inhibition) at 1uM” value was 9.55%.
Then `COc1cccc(CC(NC(C)=O)C(=O)NC2CCN(C(=O)c3ccc(Cl)cc3)CC2)c1OC` (stereo not shown), with 2.02%; and `Cc1ccsc1CN(C)C(=O)c1cc(S(=O)(=O)N2CCOCC2)ccc1N1CCCC1`, with -7.19%.
The value for `CC(C)(C)N(NC(=O)OCc1ccccc1)C(=O)c1ccccc1` was 9.07%; that for `COc1ccc(C(=O)C2CCN(C(=O)c3ccc(F)cc3)CC2)cc1` was 2.02%; that for `Cc1ccc(-c2noc(CSc3nnc(Cc4cccs4)n3-c3ccccc3)n2)cc1` was 2.97%.
On to `CC1=C(C#N)C(c2ccc(O)cc2)C2=C(CC(C)(C)CC2=O)N1` (stereo not shown), for which the “hERG current change (%, negative = inhibition) at 1uM” value was found to be 18.9%.
The value for `NC(=O)c1ccsc1NC(=O)COC(=O)CSc1ccc(Cl)cc1` was 7.07%.
With `O=C(N/N=C/c1cccnc1)c1cc2ccccc2cc1O`, the “hERG current change (%, negative = inhibition) at 1uM” value was 12.2%.
The value for `CCN1CCN(C2=C(Cl)C(=O)N(Cc3ccccc3)C2=O)CC1` was -9%.
With `COc1ccc(Cl)cc1NS(=O)(=O)c1cccc(C(=O)NC2CCC(O)CC2)c1` (stereo not shown), the “hERG current change (%, negative = inhibition) at 1uM” value is -5.1%.
Then `COc1ccc2nc(SCC(=O)NCC(F)(F)F)[nH]c2c1`, with 8.79%; and `O=C(C1=C[C@H](c2ccc3c(c2)OCO3)C[C@H](OCc2ccc(CO)cc2)O1)N1CCCCCCC1`, with 12.7%; and `CCCCn1[nH]c(-c2ccccc2)cc1=O`, with 7.2%.
The value for `CC(C)Oc1ccc(S(=O)(=O)N2CCOCC2)cc1NC(=O)Cc1cccs1` was 8.47%; that for `COCCn1nnnc1C(c1ccccc1)N1CCN(c2ccccc2)CC1.Cl` (stereo not shown) was -9.2%.
Then `O=C(N/N=C/c1cccnc1)c1ccc(Cl)c(Cl)c1`, with 10.2%; and `CC1(C)Cc2c(cnn2-c2cccc(F)c2)C(NC(=O)C2CCOCC2)C1` (stereo not shown), with -5.8%.
Take `CC1CCCN(C(=O)C2CCN(CCCc3ccccc3)CC2)C1.O=C(O)C(=O)O` (stereo not shown): the “hERG current change (%, negative = inhibition) at 1uM” value is -3.59%.
The value for `CC(=O)c1sc(N/N=C\c2ccc(N(C)C)cc2)nc1C` was 17.6%.
Then `Cc1nc2ccccc2c(=O)n1NC(=O)/C=C/c1ccccc1`, with -0.535%; and `COc1ccc(-c2cnc(N)n2CC2CCCO2)cc1` (stereo not shown), with 10.3%.
Then `O=C(c1cc(Cl)cc(Cl)c1)N1CCN(c2cc(C(F)(F)F)nc3ccccc23)CC1`, with 12.3%; and `CCO[C@H]1OC(C(=O)N2CCOCC2)=C[C@@H](c2ccccc2)[C@@H]1CCCO`, with 9.41%.
For `CN1CCN(C(=O)c2ccc3c(=O)n(Cc4ccco4)c(=S)[nH]c3c2)CC1`, the “hERG current change (%, negative = inhibition) at 1uM” value was 2.56%.
Then `O=C1c2cccnc2C(Nc2ccc(Cl)cc2)N1Cc1cccs1` (stereo not shown), with 6.55%; and `COc1ccc2[nH]c(C)c(CCNC(=S)Nc3ccccc3OC)c2c1`, with 10.4%; and `Cc1ccc(S(=O)(=O)NC(=O)Nc2nc(-c3ccc(F)c(F)c3)cs2)cc1`, with 16.1%.
Then `Cc1ccc(Nc2nc(-c3sc(NC(=O)c4ccccc4)nc3C)cs2)cc1`, with 6.04%; and `Cc1ccc(S(=O)(=O)N2CCCCC2)cc1C(=O)c1nccn1C`, with 2.93%.
`N#Cc1ccccc1NCc1ccccc1`: the “hERG current change (%, negative = inhibition) at 1uM” value was 14.6%.
Consider `Cn1cnc2ccc([N+](=O)[O-])cc2c1=O`, for which the “hERG current change (%, negative = inhibition) at 1uM” value is on record as 9.91%.
With `CC12CN3CC(C)(CN(C1)C3c1ccccc1Cl)C2O` (stereo not shown), the “hERG current change (%, negative = inhibition) at 1uM” value was -5.32%.
Then `Cc1ccc(-c2ccc(/C=C/C(=O)c3ccccc3)o2)cc1`, with 2.63%; and `CC(=O)Nc1ccc2[nH]ccc2c1`, with 4.88%; and `Cc1occc1C(=O)N/N=C/C=C\c1ccccc1[N+](=O)[O-]`, with -0.373%.
Then `COc1ccc(OCCNC(=O)Nc2cc(F)c(F)cc2Cl)cc1`, with 0.57%; and `CCn1cc(C(=O)N2CCN(c3ccccn3)CC2)c(=O)c2cc(S(=O)(=O)N3CCC(C)CC3)ccc21`, with -7.95%.
Consider `O=C(CCc1nc2ccccc2c(=O)[nH]1)NNC(=O)c1ccccc1Cl`, for which the “hERG current change (%, negative = inhibition) at 1uM” value came out at 0.0164%.
For `CCNC(=O)CCn1nc(-c2ccc(Cl)cc2)c2ccccc2c1=O`, the “hERG current change (%, negative = inhibition) at 1uM” value is given as 0.219%.
Then `COC(=O)Cn1nc(C)c2ccccc2c1=O`, with 4.81%; and `Cc1nc(N2CCOCC2)nc(N2CCN(c3ccccc3)CC2)c1[N+](=O)[O-]`, with 11.2%; and `NC(=O)CSc1ccc(Br)cc1`, with 4.93%.
Then `Cc1ccccc1C(=O)NNC(=O)C(C)N1C(=O)c2ccccc2C1=O` (stereo not shown), with 6.49%; and `CC(=O)N1CCN(C(=O)CCc2cc(C(C)(C)C)c(O)c(C(C)(C)C)c2)CC1`, with 20.1%; and `O=C(N/N=C/c1nn(-c2ccccc2)cc1-c1ccc(Cl)cc1)c1ccncc1`, with 18.8%.
Then `CCO.C[C@H]1c2cccc(O)c2C(O)=C2C(=O)[C@]3(O)C(O)=C(C(N)=O)C(=O)[C@@H](N(C)C)[C@@H]3[C@@H](O)[C@@H]21.Cl.O`, with 8.42%.
In the case of `CS(=O)(=O)N(CC(=O)N1CCc2ccccc2C1)Cc1ccc(F)cc1`, the “hERG current change (%, negative = inhibition) at 1uM” value was 6.99%.
The value for `CCCCN(C)CCNC(=O)CN1C(=O)CSc2ccc(S(=O)(=O)N3CCCC3)cc21` was 14.5%; that for `Cc1cc(NS(=O)(=O)c2ccc(Cl)cc2)nn1CC(=O)NCc1ccco1` was 11.8%.
Then `CCOc1ccc(N2C(=O)C3C(C2=O)C3(c2ccccc2)c2ccccc2)cc1` (stereo not shown), with 6.77%.
